Measurements from publication PMC4336329 (PLoS ONE, 2015).
About 2,200 (0.71%) of roughly 310,000 compounds showed an effect of 50% or more. The effect is printed as a negative number. The list shows a part of the results.

What follows are compounds tested against human ether-à-go-go-related gene (hERG) potassium channel (human, UniProt Q12809) (assay: primary screen, population patch clamp on CHO cells stably expressing hERG).
Chain of human ether-à-go-go-related gene (hERG) potassium channel (Q12809 whole entry, looked up): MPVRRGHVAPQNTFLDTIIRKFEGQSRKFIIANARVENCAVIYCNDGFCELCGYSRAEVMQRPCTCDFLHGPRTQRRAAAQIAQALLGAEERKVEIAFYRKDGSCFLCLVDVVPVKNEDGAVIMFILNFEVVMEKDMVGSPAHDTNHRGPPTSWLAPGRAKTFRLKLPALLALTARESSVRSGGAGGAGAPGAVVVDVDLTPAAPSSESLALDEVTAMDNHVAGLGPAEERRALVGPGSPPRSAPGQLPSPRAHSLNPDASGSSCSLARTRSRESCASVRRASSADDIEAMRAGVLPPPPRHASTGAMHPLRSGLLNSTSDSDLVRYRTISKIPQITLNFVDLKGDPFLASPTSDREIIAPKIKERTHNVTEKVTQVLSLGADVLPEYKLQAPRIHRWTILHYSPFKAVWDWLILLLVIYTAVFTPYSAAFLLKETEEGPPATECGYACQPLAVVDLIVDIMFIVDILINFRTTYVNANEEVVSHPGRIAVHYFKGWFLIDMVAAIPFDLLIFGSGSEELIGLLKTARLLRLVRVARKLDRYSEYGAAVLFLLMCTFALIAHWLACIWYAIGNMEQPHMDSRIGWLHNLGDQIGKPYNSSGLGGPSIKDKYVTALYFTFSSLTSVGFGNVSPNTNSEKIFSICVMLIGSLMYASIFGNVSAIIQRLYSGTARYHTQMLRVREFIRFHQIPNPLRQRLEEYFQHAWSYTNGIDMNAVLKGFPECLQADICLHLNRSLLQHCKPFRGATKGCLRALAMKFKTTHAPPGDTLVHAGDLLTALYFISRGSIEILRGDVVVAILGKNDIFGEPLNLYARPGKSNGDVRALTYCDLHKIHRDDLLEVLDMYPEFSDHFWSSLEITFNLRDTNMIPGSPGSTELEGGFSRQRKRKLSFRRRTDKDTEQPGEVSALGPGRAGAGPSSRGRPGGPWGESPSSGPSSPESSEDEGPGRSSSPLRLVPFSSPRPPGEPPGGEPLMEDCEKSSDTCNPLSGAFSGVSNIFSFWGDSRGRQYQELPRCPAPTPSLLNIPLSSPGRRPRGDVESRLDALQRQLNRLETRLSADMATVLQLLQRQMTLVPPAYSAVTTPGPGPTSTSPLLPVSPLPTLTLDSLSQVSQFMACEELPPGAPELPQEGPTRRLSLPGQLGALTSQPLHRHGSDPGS

Compound | hERG current change (%, negative = inhibition) at 1uM
Cc1ccc(C(=O)Cn2c(C(=O)OCCO)cc3ccccc32)cc1 | 11.7%
Cc1nnc(NC(=O)CSc2nc3c(c(=O)n(C)c(=O)n3C)n2C(C)C)s1 | 14.5%
CC1CCCCN1C(=O)c1cc2nc(-c3ccccc3)cc(-c3ccccc3)n2n1 (stereo not shown) | 12.4%
O=C(CCCN1C(=O)c2ccccc2C1=O)Nc1ccccn1 | 15.6%
COCc1cc(C)nc(SCC(=O)NC2CCCCC2C)c1C#N (stereo not shown) | 16%
NS(=O)(=O)c1ccc(CCNC(=O)COC(=O)C2CCC2)cc1 | 9.64%
COc1ccccc1-n1c(SCC(=O)Nc2ccc(NC(C)=O)cc2)nc2c([nH]c3ccccc32)c1=O | 14.2%
COc1ccc(S(=O)(=O)N2CCCCC2)cc1NC(=S)Nc1ccccc1 | 13.9%
CC(=O)c1cccc(NC(=O)C2CCN(S(=O)(=O)c3ccc(C)cc3)CC2)c1 | -1.63%
COC(=O)C(C)N(C(=O)c1cccc(Cl)c1)c1c(C)cccc1C (stereo not shown) | 16.8%
CCOc1ccccc1CSc1nc2ccccc2[nH]1 | 11.1%
CCC(=O)N/C(N)=N/c1nc(C)c2cc(OC)ccc2n1 | 3.38%
CO/N=C(/CS(=O)Cc1ccc(Cl)cc1)c1ccc(Cl)cc1 (stereo not shown) | -6.81%
COc1ccc(NC(C)=O)cc1NC(=O)CCn1c(=O)sc2ccccc21 | 8.35%
COc1ccc(OC)c(N/C=C/C(=C(C#N)C#N)N(C)C)c1 | 3.82%
O=C1NCCN(Cc2ccc(Cl)c(F)c2)C1CC(=O)N1CCCO1 (stereo not shown) | 12.7%
COc1ccc(C(OC(=O)c2ccco2)C(=O)NC2CCCCC2)cc1 (stereo not shown) | 4.31%
C[N+]1(CC(=O)NNc2c3ccccc3nc3ccccc23)CCOCC1.[Br-] | 7.7%
COc1cccc(SCc2noc(C(=O)NCCC(C)C)c2C(=O)NCCC(C)C)c1 | 9.89%
COc1cc(CN(C(=O)c2ccco2)C2CCS(=O)(=O)C2)cc(OC)c1OC (stereo not shown) | 11.1%
O=C(O)C(=O)O.O=C1CCCN1CN1CCCCC1 | -4.92%
Cc1cccc(CNc2ccc(C(CC(N)=O)NC(=O)c3cccc(Br)c3)cc2[N+](=O)[O-])c1 (stereo not shown) | -14.5%

Compound | hERG current change (%, negative = inhibition) at 1uM
Cc1ncc(CN2CCC(C(=O)Nc3cccc(-c4cscn4)c3)CC2)cn1 | 0.714%
Cc1cccc(N2CCN(C(=O)Cc3c(C(=O)O)[nH]c4ccc(Cl)cc34)CC2)c1C | 10.7%
COc1ccccc1C(=O)Nc1nc2ccc(S(C)(=O)=O)cc2s1 | -1.41%
O=C(c1ccc(F)cc1F)N1CCN(S(=O)(=O)c2ccc3c(c2)OCCO3)CC1 | 7.48%
OC(Cn1ccnc1)c1ccc(Cl)cc1Cl (stereo not shown) | 0.389%
O=[N+]([O-])c1cccc(-c2noc3c2-c2nc(Cc4cccc5ccccc45)sc2CC3)c1 | 14.2%
CC(C)CCNC(=O)CN(Cc1ccco1)C(=O)CCC(=O)Nc1nccs1 | 3.24%
COC(=O)[C@@]1(C#N)[C@@H]2C=CC(C(C)=O)=CN2[C@@H](C(N)=O)[C@@H]1c1ccc(F)cc1 | 3.41%
O=C(Cc1ccccc1)Nc1ccc2c(c1)CCC2 | 1.78%
CCCS(=O)(=O)c1nnnn1-c1cccc(OC)c1 | -3.62%
O=C(CNC(=O)c1ccccc1Cl)N/N=C/c1ccc([N+](=O)[O-])s1 | 5.66%
Cc1cc(=O)oc2cc(OCC(=O)NCCN3CCOCC3)c(Cl)cc12 | 13.6%
CCOc1ccc(NC(=O)NC2CCOC(C)(C)C2)cc1 (stereo not shown) | -17.1%
CC1CCCN(C(=O)Cn2nnc(-c3ccc([N+](=O)[O-])cc3)n2)C1 (stereo not shown) | 11.5%
CC/C(=N\NC(=O)C1CC1)c1cccc(Cl)c1 | 16.9%
Fc1ccc(NC(=S)N2CCCC(c3ccccc3)=N2)cc1 | 16.2%
Cc1ccc2cccc(S(=O)(=O)NC3CCS(=O)(=O)C3)c2n1 (stereo not shown) | -11.2%
C=CCOc1ccc(/C(O)=C2/C(=O)C(=O)N(CCN3CCOCC3)C2c2ccc(C)cc2)cc1 (stereo not shown) | 0.547%
Cc1cccc(OCc2ccc(C(=O)N3CCOCC3)o2)c1 | 26.4%
O=C(N/N=C/c1sc(N2CCCCC2)nc1-c1cccs1)c1cccnc1 | 19.6%
COc1ccc(NCC(=O)N2CCCC2)cc1Cl | 10.6%
CC(C)(C)NC(=O)CN(C(=O)CS(=O)CC(=O)Nc1ccc(F)cc1)c1ccc2c(c1)OCCO2 (stereo not shown) | 11.7%

Compound | hERG current change (%, negative = inhibition) at 1uM
CC(C)C(CC(=O)N1CCCCC1)C1CCOC(C)(C)C1 (stereo not shown) | 2.97%
CCC1CCC(C(=O)NC(CCSC)C(=O)NCCN(CC(C)C)CC(C)C)CC1 (stereo not shown) | 5.99%
COc1ccc(OC)c(C2=C[N+](=O)C(C)(C)C(C)(C)N2[O-])c1 | 1.31%
COc1ccc(OC)c(C(=O)N(C)C2CCCN(Cc3ccccc3F)C2)c1 (stereo not shown) | 5.98%
CC(C)n1cnc2c(oc3ccccc32)c1=O | 9.24%
O=c1[nH]nc(CNc2ccc(OC(F)(F)F)cc2)c2ccccc12 | -14.8%
COc1ccc(N2CCN(CC(=O)Nc3c(C)cc(C)cc3C)CC2)cc1 | 5.13%
CC(CCc1ccccc1)NC(=O)c1ccco1 (stereo not shown) | 20.2%
COc1cccc(OC)c1OCCOc1ccc(C(=O)c2ccccc2)cc1 | 2.65%
Cc1ccc(-n2c(O)c(C=Nc3ccc4c(c3)OCO4)c3ccccc3c2=O)cc1C | -5.77%
CCn1c(COc2ccccc2C)nnc1SCC(=O)CC(=O)Nc1ccccc1OC | 0.976%
N#C/C(=C\c1ccc2c(c1)OCO2)C(=O)NCc1ccco1 | 13%
CCOC(=O)C(=NC1CCCCC1)NNc1cccc(C(F)(F)F)c1 | 5.07%
COC(=O)c1ccc(CNC(=O)c2ccc(OCC(=O)N3CCOCC3)c(OC)c2)cc1 | 9.13%
Cc1cccc(N2CCN(C(=O)CNC(=O)c3ccccc3)CC2)c1C | 2.99%
O=C(NCC(c1ccco1)N1CCN(c2ccccc2F)CC1)OCc1ccccc1 (stereo not shown) | 10.2%
CN(c1ccc(OCC(=O)OCC(=O)c2c(N)n(C)c(=O)n(C)c2=O)cc1)S(=O)(=O)c1ccc2ccccc2c1 | 1.42%
O=C(Nc1cccnc1)c1cnn2cccnc12 | -8.49%
O=C(CSc1nnc(SCc2ccc(Cl)cc2)s1)N1CCN(C(=O)c2ccco2)CC1 | -19.2%
CCC(C)NC(=O)CSc1n[nH]c(=O)n1CCc1ccccc1 (stereo not shown) | 4.75%
CNC[C@H](O)[C@@H](O)[C@H](O)[C@H](O)CO.Cc1c(Nc2ncccc2C(=O)O)cccc1C(F)(F)F | 15.5%
COCCCN1C(=O)C(=O)/C(=C(/O)c2ccc(C)cc2)C1c1ccccc1 (stereo not shown) | 13%

Compound | hERG current change (%, negative = inhibition) at 1uM
O=C(N/N=C/c1cc2c(cc1Cl)OCO2)c1ccccn1 | 15.5%
N#Cc1ccccc1S(=O)(=O)N1CCN(C(=O)c2cc(=O)[nH]c3ccccc23)CC1 | 12.5%
NC(=O)C1CC(=O)N(Cc2ccc3c(c2)OCO3)C(=Nc2ccccc2)S1 (stereo not shown) | 13.2%
Cc1ccc(CN2CCN(Cc3ccc4c(c3)OCCO4)CC2CCO)cc1 (stereo not shown) | -3.94%
CNc1nc(-c2c(C)n(C)c3ccc(OC)cc23)cs1 | 13.2%
COc1ccc(-c2cc(C(=O)NC3CCCC3)c3ccccc3n2)cc1OC | 8.22%
CCC(C)[C@@H]1NC(=O)N(CCCN2CCCC2=O)C1=O (stereo partly shown) | 12.7%
Cc1[nH]c2ccccc2c1/C=N/n1cnnc1 | 15.9%
CN1C(=O)CC(N2CCN(c3ccc(Cl)c(Cl)c3)CC2)C1=O (stereo not shown) | 1.54%
Cc1cccc(CCNCc2cc3cccc(C)c3[nH]c2=O)c1 | -35.7%
CCCC(=O)c1cc(F)c(N2CCN(C(=O)OCC)CC2)cc1C | 12.2%
COc1ccc(CCN(C)C(=O)Cc2ccc(-c3ccccc3)cc2)cc1OC | 15.1%
CCOP(=O)(OCC)c1nc(-c2ccc(Cl)cc2Cl)oc1N1CCCCC1 | 1.96%
N#Cc1cc(F)c(N2CCNCC2)cc1Cl | 12.7%
CCN1CCN(CC(O)COc2ccc(C(C)=O)cc2)CC1.Cl (stereo not shown) | 2.6%
CCOc1ccc(OCCOCCOc2c(Cl)cccc2Cl)cc1 | 6.65%
O=C(Nc1ccc2c(c1)Cc1ccccc1-2)c1cccnc1 | -3.47%
O=c1cc(O)c2c(=O)n(Cc3ccccc3)c3ccccc3c2o1 | 10.4%
CS(=O)(=O)N(CC(=O)N1CCN(Cc2ccccc2)CC1)c1cccc(Cl)c1 | -23%
CN(C)CCCN(C(=O)COc1ccccc1)c1nc2ccc(Cl)cc2s1.Cl | -14.2%
CC(C)(C)S(=O)(=O)c1cnc(N2CCCCC2)nc1N | 14.9%
COc1ccc([C@H]2CC(=O)C=C(c3ccc4[nH]ccc4c3)C2)cc1OC | 13.1%
